According to publication PMC4336329 (PLoS ONE, 2015):
Out of some 310,000 compounds screened, about 14,000 (4.5%) showed an effect of 50% or more. Effects have a minus sign here. The list shows a part of the results.

target: human ether-à-go-go-related gene (hERG) potassium channel (human, UniProt Q12809); assay: primary screen, population patch clamp on CHO cells stably expressing hERG
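Also: peak tail current of the secondary pulse compared with the same well before compound.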

human ether-à-go-go-related gene (hERG) potassium channel, sequence (Q12809 whole entry, looked up): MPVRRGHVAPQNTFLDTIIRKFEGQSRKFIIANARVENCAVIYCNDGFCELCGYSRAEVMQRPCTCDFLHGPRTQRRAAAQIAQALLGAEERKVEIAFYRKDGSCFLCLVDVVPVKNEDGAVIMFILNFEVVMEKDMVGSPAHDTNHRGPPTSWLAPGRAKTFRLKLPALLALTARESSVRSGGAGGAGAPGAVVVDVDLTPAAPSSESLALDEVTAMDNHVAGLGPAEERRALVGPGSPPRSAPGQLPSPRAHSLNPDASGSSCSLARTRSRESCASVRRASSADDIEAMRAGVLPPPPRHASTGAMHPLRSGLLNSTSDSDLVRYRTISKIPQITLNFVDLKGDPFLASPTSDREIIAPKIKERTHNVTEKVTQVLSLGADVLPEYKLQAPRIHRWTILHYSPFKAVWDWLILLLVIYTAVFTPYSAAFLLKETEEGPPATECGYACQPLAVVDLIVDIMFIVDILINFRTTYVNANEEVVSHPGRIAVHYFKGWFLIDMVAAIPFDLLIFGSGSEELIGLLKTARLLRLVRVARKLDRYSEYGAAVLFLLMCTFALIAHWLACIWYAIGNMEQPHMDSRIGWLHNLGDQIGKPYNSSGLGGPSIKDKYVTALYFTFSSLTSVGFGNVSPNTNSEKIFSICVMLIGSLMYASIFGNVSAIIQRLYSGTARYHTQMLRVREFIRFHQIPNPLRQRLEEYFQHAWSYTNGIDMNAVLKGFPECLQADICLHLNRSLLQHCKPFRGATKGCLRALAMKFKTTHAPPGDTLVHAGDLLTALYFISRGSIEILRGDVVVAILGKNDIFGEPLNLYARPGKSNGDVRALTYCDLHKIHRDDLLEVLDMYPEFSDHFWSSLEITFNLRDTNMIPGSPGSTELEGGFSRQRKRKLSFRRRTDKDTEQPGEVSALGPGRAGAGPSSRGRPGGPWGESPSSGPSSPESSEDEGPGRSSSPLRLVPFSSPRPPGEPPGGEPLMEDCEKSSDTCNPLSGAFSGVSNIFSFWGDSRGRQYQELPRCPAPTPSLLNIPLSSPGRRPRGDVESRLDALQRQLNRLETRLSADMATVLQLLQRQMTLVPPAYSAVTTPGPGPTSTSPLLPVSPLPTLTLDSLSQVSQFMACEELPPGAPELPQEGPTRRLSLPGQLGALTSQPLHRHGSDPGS

Structure (SMILES) | hERG current change (%, negative = inhibition) at 10uM [%]
CCN(C(=O)CSc1ncn[nH]1)c1cccc2ccccc12 | 3.47
O=C(CCc1nnc2ccc(N3CCCC3)nn12)Nc1ccc(F)c(F)c1 | 9.52
CCOCCCn1c(=S)[nH]c2cc(C(=O)N3CCN(c4ccccc4)CC3)ccc2c1=O | 3.12
Cc1ccccc1CN1C(=O)Nc2ccccc2C(=O)N1C(C)(C)C | -6.86
CCC1Sc2ccccc2N(CC(=O)NC2CCCC2)C1=O (centres unmarked) | -3.63
Cc1ccc(NC(=O)CSc2ncc3ccccn23)cc1 | -2.63
O=C(Cn1cc(C(F)(F)F)ccc1=O)N/N=C/c1ccc(O)cc1 | 2.18
COc1ccc(/C(C)=N/NC(=O)CNC(=O)/C=C\c2ccccc2)c(OC)c1 | -9.28
COCCNC(=O)CSc1nc2cc(OC)c(OC)cc2c(=O)n1Cc1ccco1 | -61.2
Cc1ccc(C(=O)SC2=NCCS2)cc1 | -16.6
COCCNC(=O)C(OC(=O)c1ccco1)c1ccccc1OC (centres unmarked) | 4.24
c1ccc(CSc2nnc(-c3ccccc3)c(-c3ccccc3)n2)cc1 | 0.0842
Cn1cccc1/C=N/n1cnnc1 | -15.7
Cc1ccc(C(C)C)c(OCC(=O)N2CCOCC2)c1 | -5.95
COc1cc(NC(=O)CN(C)S(=O)(=O)c2ccc3c(c2)CC(C)N3C(C)=O)cc(OC)c1OC (centres unmarked) | 13
O=C(Cc1ccon1)c1ccc(O)cc1O | 10.6
O=C(Nc1nccs1)C1CC=CCC1 (centres unmarked) | 15.2
OCc1ccccc1SSc1ccccc1CO | 14.5
Cc1[nH]c2ccccc2c1C(=O)CSc1nc2ncc(Cl)cc2[nH]1 | 25
C=CCNc1nc(N)c(C(=O)Nc2cc(C)on2)s1 | 5.36
COC(=O)[C@]1(Cc2ccccc2)N[C@H](c2ccc(-c3ccc(F)cc3)cc2)[C@@H]2C(=O)N(C)C(=O)[C@@H]21.O=C(O)C(F)(F)F | 2.64
Cc1oc(-c2nc3ccccc3n2C)cc1C(=O)c1ccccc1 | -48.7

Structure (SMILES) | hERG current change (%, negative = inhibition) at 10uM [%]
CC(C)n1c(-c2cccnc2)nc2cnccc21 | 1.55
O=C1/C(=C\c2cc(Br)cc(Br)c2O)SC(=S)N1Cc1ccccc1 | 18.9
Cc1ccc(OCC(=O)Nc2ccc(-c3nc4ncccc4o3)cc2)cc1 | 10.5
CC(C)CC(/C(O)=C(\C#N)c1nc2ccccc2[nH]1)N1C(=O)c2ccccc2C1=O (centres unmarked) | -3.15
O=C1CCC([N+](=O)[O-])C(c2ccc(Cl)cc2)N1 (centres unmarked) | -28.7
Cc1cc(SCC(=O)Nc2cccc(S(=O)(=O)NC3=NCCCCC3)c2)nc2ccccc12 | -5.93
CCC(C)(C)NC(=O)C(c1ccncc1)N(Cc1cccs1)C(=O)Cn1nnc2ccccc21 (centres unmarked) | -43.7
CCc1cc2c(cc3c(=O)n(CC(=O)NCCCN(CC)CC)nc(CC)n32)s1 | -34.9
N#CC1(CCCN2CCCCC2)c2ccccc2CCc2ccccc21.O=C(O)C(=O)O | -52.7
CCN(CC(=O)Nc1c(F)cccc1F)C(=O)CCNS(=O)(=O)c1ccccc1C(F)(F)F | 3.06
Clc1ccc(-c2nnc(SCc3ccon3)o2)c(Cl)c1 | -33.9
Cc1cccc(C)c1NC(=O)CN(C)C(=O)CCc1nc2sc3c(c2c(=O)[nH]1)CCCC3 | 5.53
CCCN1CCc2c(sc(NC(=O)CCS(=O)(=O)c3ccccc3)c2C(=O)OC)C1.Cl | -67
COc1ccc(C(=O)N2CCN(S(=O)(=O)c3ccc(C)cc3C)CC2)cc1OC | -20.7
Nc1nc2ccc(-c3nc4ccccc4o3)cc2s1 | 0.315
CC(C)CCNC(=O)c1ccc2c(Cl)c3c(nc2c1)CCC3 | 21.4
CCc1cccc(NS(=O)(=O)c2c(C)n[nH]c2C)c1.Cl | 2.67
Cn1cccc1C1(C(F)(F)F)NCCNC1=O (centres unmarked) | 0.985
O=C(COc1ccc([N+](=O)[O-])cc1)Nc1ccc(N2CCCC2)cc1 | 12.1
O=C(Nc1nnc(-c2ccccc2Cl)o1)c1nc2ccccc2s1 | 1
CCOC(=O)c1ccc(NC(=O)c2nccnc2C(=O)O)cc1 | 1.42
CCOC(=O)C(C(=O)Nc1nc2ccccc2s1)C1CCCCC1 (centres unmarked) | 12.4

Structure (SMILES) | hERG current change (%, negative = inhibition) at 10uM [%]
Cc1ccc(NC(=O)c2cccc(S(=O)(=O)N3CCCCC3)c2)cc1 | 11.4
Cl.Nc1cnccc1Oc1cccc(C(F)(F)F)c1 | 4.65
Clc1ccc(-c2ccc(CN3CCCCC3)o2)cc1 | -11.8
Cc1ccnc(NC(=O)c2cccc(S(=O)(=O)NCc3ccccc3)c2)c1 | -34.6
Cc1cc2c(n1-c1ccc(Br)cc1)CC(C)(C)CC2=O | -33.5
CCCC(C(=O)NCc1ccco1)N(C(=O)CNS(=O)(=O)c1ccccc1)C1CCCC1 (centres unmarked) | -18.8
Cc1cccc(N2CC(c3nc4ccccc4[nH]3)CC2=O)c1 (centres unmarked) | 6.36
COc1ccc(OCCOc2ccccc2[N+](=O)[O-])cc1 | 12.7
CN(Cc1nccs1)C(=O)C1CCC(=O)N(Cc2ccccc2F)C1 (centres unmarked) | -16.1
COCCOC(=O)c1c(C)oc2ccc(OC(=O)c3cccs3)cc12 | 10.8
Nc1c(C(=O)NC2CCCCC2)nsc1C(=O)OCC(=O)NC1CCCCC1 | 12.5
COc1ccccc1NC(=O)c1cc2c(CO)cnc(C)c2oc1=Nc1ccccc1 | 33.9
O=C(O)c1ccccc1NC(=O)C(Cc1ccccc1)N1C(=O)c2ccccc2C1=O (centres unmarked) | 11.3
CC(=O)Nc1c(I)c(NC(C)=O)c(I)c(C(=O)O)c1I.CNC[C@H](O)[C@@H](O)[C@H](O)[C@H](O)CO | 15.6
COC(=O)c1ccc(C(C(=O)NCc2ccccc2)N(Cc2ccco2)C(=O)c2cnccn2)cc1 (centres unmarked) | -25.4
CC1C(C)N1CC(O)Cn1ccnc1[N+](=O)[O-] (centres unmarked) | -6.85
CCC(C)(C)NC(=O)c1ccccc1Oc1ccccc1 | -29.9
CN(C(=O)CN1C(=O)CCSc2ccc(S(=O)(=O)N3CCCC3)cc21)c1ccccc1 | -1.46
O=C(CSc1nc2ccccc2[nH]1)N=Nc1c(O)[nH]c2ccccc12 | -4.91
Cc1cc([N+](=O)[O-])nn1CC(=O)Nc1ccc(Cl)cn1 | -0.173
Cc1ccc(C(=O)Nc2cccc(C(=O)O)c2)cc1S(=O)(=O)N1CCCCC1 | 11.4
COc1ccc(S(=O)(=O)Cc2ccc(C(=O)NC3CCCCC3)o2)cc1 | -2.17

Structure (SMILES) | hERG current change (%, negative = inhibition) at 10uM [%]
COc1cc(-c2noc(CCCC(=O)Nc3cccnc3)n2)cc(OC)c1OC | -10.5
O=C(N=C1SC2CS(=O)(=O)CC2N1c1ccccc1Cl)C1CCCO1 (centres unmarked) | 16.3
CCn1c(CNC(=O)C(C)(C)C)nc2ccccc21 | -6.07
CCCc1nnc(N2C(=O)c3cccc4cccc(c34)C2=O)s1 | 10.3
Cc1ccc(S(=O)(=O)NCc2cn3ccsc3n2)c(C)c1 | -4.33
CC[C@H]1OC(=O)[C@H](C)[C@@H](O[C@H]2C[C@@](C)(OC)[C@@H](O)[C@H](C)O2)[C@H](C)[C@@H](O[C@@H]2O[C@H](C)C[C@H](N(C)C)[C@H]2O)[C@](C)(O)C[C@@H](C)C(=NOCOCCOC)[C@H](C)[C@@H](O)[C@]1(C)O | 17.2
O=C(c1ccccc1)C(C(=O)N1CCCCC1)n1ccccc1=O (centres unmarked) | -2.77
COc1cc(N2CCCC2)c(OC)cc1/C=C(/C#N)c1ccc(Br)cc1 | -7.89
COC(=O)Cc1c(O)ccn(Cc2ccc(Cl)c(Cl)c2)c1=O | 10.3
Cc1ccc(S(=O)(=O)N2CCN(C(C)C(=O)Nc3ccccc3-c3ccccc3)CC2)cc1 (centres unmarked) | -8.46
COC(=O)c1ccc(NC(=O)COC(=O)c2cccc3c(=O)c(C)c(-c4ccccc4)oc23)cc1 | 13.5
Cc1cccc(-n2c(O)c(C=NCCN3CCCCC3)c(=O)[nH]c2=O)c1 | -1.46
CC1(c2ccccc2)CC(C)(C)N2C(=O)C(=O)c3cccc1c32 (centres unmarked) | 19.6
CCOc1ccc(CCNC(=O)COC(=O)C2CC2)cc1OCC | 3.41
CCC(C)NC(=O)CN1C(=O)NC2NC(=O)NC21 (centres unmarked) | 10.3
CCN(CC)C(=O)Cn1cc(S(=O)(=O)CC(=O)Nc2ccc(OC)c(OC)c2)c2ccccc21 | -23.2
Cc1cc(C)cc(-n2nnnc2SCC(=O)Nc2nc(-c3ccc(F)cc3)cs2)c1 | 1.26
O=C(NCC1CCCCC1)c1ccc(Br)o1 | 1.42
Cc1cccc(OCC(=O)Nc2nc(-c3ccncc3)cs2)c1 | 7.32
COC(=O)c1ccccc1NC(=O)Nc1ccc(C(=O)N2CCCC2)cc1 | 10.2
